# The full ranking holds about 81,000 sequences; the median of “one-hybrid fitness for binding parS DNA” is about -0.17, and the highest 2% start at about 0.51. The list shows a part of the results.
# B1: Caulobacter ParB omega fusion; a variant is named by its letters at X, in order, B8GW30 (parent)
# chain: MESVVVGEPGMSEGRRGLGRGLSALLGEVDAAPAQAPGEQLGGSREAPIEILQRNPDQPRRTFREEDLEDLSNSIREKGVLQPILVRPSPDTAGEYQIVAGERAWRAAQRAGLKTVPIMVRELDDLAVLEIGIIENVQRADLNVLEEALSYKVLMEKFERTQENIAQTIGKSXSHVANXMRLLXLPDEVQSYLVSGELTAXHARAIAAAADPVALAKQIIEGGLSVRETEALARKAPNLSAGKSKGGRPPRVKDTDTQALESDLSSVLGLDVSIDHRGSTGTLTITYATLEQLDDLCNRLTRGI
# Variants of: B1
# Experiment: one-hybrid fitness for binding parS DNA (scaled: cognate 1, non-cognate 0); higher = stronger binding
# Conditions: with parS DNA site
# Procedure, shortened: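 Values were rescaled so that cognate is 1 and non-cognate is 0. Each is a fitness, the log change in a variant's read ratio to wild type from Illumina reads of plasmids before and after selection, with three replicate libraries pooled and variants under 10 reads dropped. Selection of the Caulobacter ParB libraries, four specificity codons randomised, used E. coli USO with a HIS3 reporter, site 19 bp from the promoter, on M9-minus-histidine with 0.1 mM IPTG and 5 mM 3-AT for 48 hours at 37°C.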
row,Variant,one-hybrid fitness for binding parS DNA
1,RDDD,≤ 0.2
2,QMTF,≤ 0.2
3,ASLI,≤ 0.2
4,TCVC,≤ 0.2
5,MSCC,≤ 0.2
6,ETNM,≤ 0.2
7,TWNF,≤ 0.2
8,AMTP,≤ 0.2
9,HDPV,≤ 0.2
10,SQQL,≤ 0.2
11,QINS,≤ 0.2
12,ALKK,≤ 0.2
13,KART,≤ 0.2
14,VYGR,≤ 0.2
15,ENTT,≤ 0.2
16,VHWS,≤ 0.2
17,CNMC,≤ 0.2
18,RNAK,≤ 0.2
19,RANQ,≤ 0.2
20,AVAI,≤ 0.2
21,QMRT,≤ 0.2
22,SHPL,≤ 0.2
23,QKHL,≤ 0.2
24,PTAL,≤ 0.2

row,Variant,one-hybrid fitness for binding parS DNA
1,RNLK,≤ 0.2
2,SQAT,≤ 0.2
3,VSRL,≤ 0.2
4,FTRA,≤ 0.2
5,QQSR,≤ 0.2
6,FSRE,≤ 0.2
7,DLTA,≤ 0.2
8,PYHG,≤ 0.2
9,YYKN,≤ 0.2
10,SWAM,≤ 0.2
11,EAYQ,≤ 0.2
12,SYNM,≤ 0.2
13,AMVN,≤ 0.2
14,SEAL,≤ 0.2
15,DSAG,≤ 0.2
16,QSAG,≤ 0.2
17,VFTT,≤ 0.2
18,WVSS,≤ 0.2
19,YEVT,≤ 0.2
20,FPQR,≤ 0.2
21,QMDC,≤ 0.2
22,TRTN,≤ 0.2
23,DTEV,≤ 0.2
24,KLWA,≤ 0.2

row,Variant,one-hybrid fitness for binding parS DNA
1,GHWG,≤ 0.2
2,RCRH,0.293
3,SPSE,≤ 0.2
4,RCDG,0.959
5,ANPY,≤ 0.2
6,HTCG,≤ 0.2
7,VRNY,≤ 0.2
8,ASTT,≤ 0.2
9,LNGL,≤ 0.2
10,LQYD,≤ 0.2
11,HHTV,≤ 0.2
12,QTCQ,≤ 0.2
13,ATLQ,≤ 0.2
14,MNGG,≤ 0.2
15,MLIC,≤ 0.2
16,FEYF,≤ 0.2
17,GFHI,≤ 0.2
18,AHRP,≤ 0.2
19,TKDL,≤ 0.2
20,RICL,≤ 0.2
21,HVHD,≤ 0.2
22,YCNS,≤ 0.2
23,SDKV,≤ 0.2
24,CSLA,≤ 0.2

row,Variant,one-hybrid fitness for binding parS DNA
1,SGIG,≤ 0.2
2,PRAF,≤ 0.2
3,CVSV,≤ 0.2
4,RDEK,0.207
5,LDGI,≤ 0.2
6,QNKK,≤ 0.2
7,RPTN,≤ 0.2
8,CKSG,≤ 0.2
9,CPHF,≤ 0.2
10,RPMC,≤ 0.2
11,GQDL,≤ 0.2
12,FLVV,≤ 0.2
13,EVNT,≤ 0.2
14,QWVT,≤ 0.2
15,RGLK,≤ 0.2
16,AVQE,≤ 0.2
17,KRTD,≤ 0.2
18,GTKR,≤ 0.2
19,DAQS,0.22
20,TQAM,≤ 0.2
21,NLAT,≤ 0.2
22,HRRS,0.455
23,SRYR,≤ 0.2
24,CSKG,≤ 0.2

row,Variant,one-hybrid fitness for binding parS DNA
1,LAAP,≤ 0.2
2,LRHF,≤ 0.2
3,KRCV,≤ 0.2
4,LAHA,≤ 0.2
5,ITPE,≤ 0.2
6,YFDM,≤ 0.2
7,ITIG,≤ 0.2
8,HCRS,≤ 0.2
9,GACC,≤ 0.2
10,KIPS,≤ 0.2
11,VCAW,≤ 0.2
12,RYGK,≤ 0.2
13,EYDT,≤ 0.2
14,GFRG,≤ 0.2
15,AYRC,≤ 0.2
16,HRCY,≤ 0.2
17,VNPT,≤ 0.2
18,VENY,≤ 0.2
19,KKSK,≤ 0.2
20,LTTY,≤ 0.2
21,QGPL,≤ 0.2
22,CALG,≤ 0.2
23,LIHS,≤ 0.2
24,FINV,≤ 0.2

row,Variant,one-hybrid fitness for binding parS DNA
1,SLVK,≤ 0.2
2,QYQY,≤ 0.2
3,QYAA,≤ 0.2
4,YYHT,≤ 0.2
5,YPTE,≤ 0.2
6,TMTG,≤ 0.2
7,FHAF,≤ 0.2
8,PSWW,≤ 0.2
9,LLKG,≤ 0.2
10,VFHV,≤ 0.2
11,MLAM,≤ 0.2
12,IMTS,≤ 0.2
13,DLLN,≤ 0.2
14,KGMA,≤ 0.2
15,REAA,≤ 0.2
16,CRYY,≤ 0.2
17,LPKT,≤ 0.2
18,LHPI,≤ 0.2
19,MTYL,≤ 0.2
20,HVTS,≤ 0.2
21,TSRG,≤ 0.2
22,HHDW,≤ 0.2
23,TQRI,≤ 0.2
24,YLYN,≤ 0.2

row,Variant,one-hybrid fitness for binding parS DNA
1,EIFC,≤ 0.2
2,SPHR,≤ 0.2
3,LWTC,≤ 0.2
4,PYRL,≤ 0.2
5,RYIE,≤ 0.2
6,YVTC,≤ 0.2
7,NDIW,≤ 0.2
8,SYWW,≤ 0.2
9,NIKP,≤ 0.2
10,DSFG,≤ 0.2
11,EVAS,≤ 0.2
12,QGSG,≤ 0.2
13,HYYT,≤ 0.2
14,SSVW,≤ 0.2
15,GRTM,≤ 0.2
16,WIGS,≤ 0.2
17,NVHS,≤ 0.2
18,QAVM,≤ 0.2
19,TGSW,≤ 0.2
20,NTEV,≤ 0.2
21,IGSC,≤ 0.2
22,RFEL,≤ 0.2
23,SVVW,≤ 0.2
24,QSCG,≤ 0.2

row,Variant,one-hybrid fitness for binding parS DNA
1,LMGG,≤ 0.2
2,TAYS,≤ 0.2
3,QSAT,≤ 0.2
4,QNVR,≤ 0.2
5,YRQQ,≤ 0.2
6,DRNG,≤ 0.2
7,KYPQ,≤ 0.2
8,RTTI,≤ 0.2
9,RMRK,≤ 0.2
10,NIRC,≤ 0.2
11,PMDT,≤ 0.2
12,LCHG,≤ 0.2
13,QAIH,≤ 0.2
14,DCHV,≤ 0.2
15,TRLN,≤ 0.2
16,DDKH,≤ 0.2
17,QQWR,≤ 0.2
18,TVFR,≤ 0.2
19,TFER,≤ 0.2
20,EGDS,≤ 0.2
21,PPCC,≤ 0.2
22,QEEF,≤ 0.2
23,CPDA,≤ 0.2
24,AWYY,≤ 0.2

row,Variant,one-hybrid fitness for binding parS DNA
1,KGSR,≤ 0.2
2,TCIS,≤ 0.2
3,DLRN,≤ 0.2
4,QCLE,≤ 0.2
5,HSHR,≤ 0.2
6,PVMT,≤ 0.2
7,GERW,≤ 0.2
8,TGLW,≤ 0.2
9,WKHG,≤ 0.2
10,QAFE,≤ 0.2
11,DIRK,≤ 0.2
12,VYAN,≤ 0.2
13,CVQE,≤ 0.2
14,QLPK,≤ 0.2
15,ARAC,≤ 0.2
16,EACR,≤ 0.2
17,RHPM,≤ 0.2
18,HCGM,0.248
19,LKTY,≤ 0.2
20,EQWV,≤ 0.2
21,RWQP,≤ 0.2
22,RMLA,0.609
23,SKTW,≤ 0.2
24,HKMG,≤ 0.2

row,Variant,one-hybrid fitness for binding parS DNA
1,YRYM,≤ 0.2
2,SLIW,≤ 0.2
3,VNSM,≤ 0.2
4,TFPL,≤ 0.2
5,CVCS,≤ 0.2
6,AIDG,≤ 0.2
7,WGDC,≤ 0.2
8,WLTS,≤ 0.2
9,TEIS,≤ 0.2
10,CQPC,≤ 0.2
11,LTHN,≤ 0.2
12,TYPS,≤ 0.2
13,SIQE,≤ 0.2
14,QRKW,≤ 0.2
15,MNVL,≤ 0.2
16,PVIL,≤ 0.2
17,EAVY,≤ 0.2
18,SRPT,≤ 0.2
19,CMYE,≤ 0.2
20,GFTG,≤ 0.2
21,IQSS,≤ 0.2
22,PLQM,≤ 0.2
23,HYLA,≤ 0.2
24,QGEE,≤ 0.2

row,Variant,one-hybrid fitness for binding parS DNA
1,TRSS,≤ 0.2
2,CLWF,≤ 0.2
3,EVYT,≤ 0.2
4,AVRC,≤ 0.2
5,RCIK,≤ 0.2
6,LVSS,≤ 0.2
7,PPSS,≤ 0.2
8,LSMS,≤ 0.2
9,KQSL,≤ 0.2
10,IKDG,≤ 0.2
11,GAKW,≤ 0.2
12,TIHI,≤ 0.2
13,MCLC,≤ 0.2
14,MFDR,≤ 0.2
15,ETWS,≤ 0.2
16,MVYH,≤ 0.2
17,NSQR,≤ 0.2
18,DGAY,≤ 0.2
19,KGRI,≤ 0.2
20,GKDW,≤ 0.2
21,WGSG,≤ 0.2
22,VWMI,≤ 0.2
23,GYTM,≤ 0.2
24,YAWI,≤ 0.2

row,Variant,one-hybrid fitness for binding parS DNA
1,IEPY,≤ 0.2
2,THYD,≤ 0.2
3,DAHY,≤ 0.2
4,AATA,≤ 0.2
5,WYPG,≤ 0.2
6,PGRS,≤ 0.2
7,NALG,≤ 0.2
8,HDSW,≤ 0.2
9,WATR,≤ 0.2
10,YMYL,≤ 0.2
11,LMVK,≤ 0.2
12,QYKI,≤ 0.2
13,PGGP,≤ 0.2
14,IWKS,≤ 0.2
15,GRKS,≤ 0.2
16,TAET,≤ 0.2
17,VHNI,≤ 0.2
18,TSSH,≤ 0.2
19,ASPF,≤ 0.2
20,CTNE,≤ 0.2
21,GYDC,≤ 0.2
22,QNLG,≤ 0.2
23,TFQI,≤ 0.2
24,TPEE,≤ 0.2

row,Variant,one-hybrid fitness for binding parS DNA
1,QGAG,≤ 0.2
2,RNQW,≤ 0.2
3,LICF,≤ 0.2
4,CHHT,≤ 0.2
5,TCKT,≤ 0.2
6,SLWN,≤ 0.2
7,RRIR,≤ 0.2
8,DYAS,≤ 0.2
9,DNYY,≤ 0.2
10,PHMV,≤ 0.2
11,GATT,≤ 0.2
12,MKYT,≤ 0.2
13,GWKG,≤ 0.2
14,EKQT,≤ 0.2
15,EYSG,≤ 0.2
16,YQRG,≤ 0.2
17,VYMT,≤ 0.2
18,RDSD,≤ 0.2

# Reference: a collection of fitness landscapes (doi:10.1016/j.celrep.2020.107928)
